This is one part of the list.

For 31 sequences, binding signal results are on record in paper PMC12820563, “FoxP3 forms a head-to-head dimer in vivo and stabilizes its multimerization on adjacent microsatellites”.

This experiment deals with T1, MBP-FoxP1dN (Mus musculus, UniProt P58462 326-579).
T1 sequence: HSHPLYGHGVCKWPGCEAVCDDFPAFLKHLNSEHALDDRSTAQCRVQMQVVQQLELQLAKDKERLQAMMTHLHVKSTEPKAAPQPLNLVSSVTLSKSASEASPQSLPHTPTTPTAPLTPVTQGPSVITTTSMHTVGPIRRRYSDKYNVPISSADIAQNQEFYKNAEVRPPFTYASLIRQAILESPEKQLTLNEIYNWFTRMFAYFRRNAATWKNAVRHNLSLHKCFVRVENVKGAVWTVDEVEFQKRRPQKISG
Kind of experiment: PD-seq (MBP pull-down with sequencing); 20 mM Tris-HCl pH 7.5, 100 mM NaCl, 1.5 mM MgCl2, 0.4 uM protein, 0.1 uM dsDNA library, 30 min, room temperature, amylose pull-down; high values mean tight binding. The conditions noted are these: protein: recombinant; tags: His6-MBP; chain copies: 2; dsDNA, one strand shown. Put shortly:
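His6-MBP-tagged mouse FoxP3 or FoxP1 fragment lacking the N-terminus, expressed in E. coli, was mixed at 0.4 µM with 0.1 µM Klenow-filled double-stranded degenerate DNA library. Incubation was 30 min at room temperature in Tris pH 7.5 buffer with NaCl and MgCl2. Complexes were caught on amylose resin and washed three times; DNA was released with proteinase K, PCR-barcoded and Illumina-sequenced. Binding is reads-per-million enrichment, pull-down over input, with replicates pooled.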
On to “GATGATTGTTCTCCCAGCTGATGAATTTAGGAGATCGAGTAAACAAATTTTCCTAATCTTTCTGTTCAAGCGCCATCTAC”, for which the binding signal is 0.968 RPM ratio (pull-down/input). For “GATGATTGTTCTCCCAGCTGATGAATTGGAAGCGTCGAGTAAACAAATTTTCCTAATCTTTCTGTTCAAGCGCCATCTAC”, the binding signal is 0.893 RPM ratio (pull-down/input).

Turning to “GATGATTGTTCTCCCAGCTGATGAATTGGTAGTGTCGAGTAAACAAATTTTCCTAATCTTTCTGTTCAAGCGCCATCTAC”, the binding signal is 0.916 RPM ratio (pull-down/input). Take “GATGATTGTTCTCCCAGCTGATGAATTCTTCACTTCGAGTAAACAAATTTTCCTAATCTTTCTGTTCAAGCGCCATCTAC”: the binding signal was 0.92 RPM ratio (pull-down/input). For “GATGATTGTTCTCCCAGCTGATGAATTAGGGTATTCGAGTAAACAAATTTTCCTAATCTTTCTGTTCAAGCGCCATCTAC”, the binding signal is 0.894 RPM ratio (pull-down/input). Turning to “GATGATTGTTCTCCCAGCTGATGAATTTCAGTAGTCGAGTAAACAAATTTTCCTAATCTTTCTGTTCAAGCGCCATCTAC”, the binding signal is 0.904 RPM ratio (pull-down/input). In the case of “GATGATTGTTCTCCCAGCTGATGAATTTTCGACATCGAGTAAACAAATTTTCCTAATCTTTCTGTTCAAGCGCCATCTAC”, the binding signal was 1.07 RPM ratio (pull-down/input).

Consider “GATGATTGTTCTCCCAGCTGATGAATTAGCTGACTCGAGTAAACAAATTTTCCTAATCTTTCTGTTCAAGCGCCATCTAC”, for which the binding signal was 0.798 RPM ratio (pull-down/input). Consider “GATGATTGTTCTCCCAGCTGATGAATTCAGGTGTTCGAGTAAACAAATTTTCCTAATCTTTCTGTTCAAGCGCCATCTAC”, for which the binding signal is 0.917 RPM ratio (pull-down/input). For the sequence “GATGATTGTTCTCCCAGCTGATGAATTGAAAGCCTCGAGTAAACAAATTTTCCTAATCTTTCTGTTCAAGCGCCATCTAC”, the binding signal is 0.795 RPM ratio (pull-down/input). “GATGATTGTTCTCCCAGCTGATGAATTTAATAAGTCGAGTAAACAAATTTTCCTAATCTTTCTGTTCAAGCGCCATCTAC”: the binding signal was 1.02 RPM ratio (pull-down/input). “GATGATTGTTCTCCCAGCTGATGAATTTCCCAATTCGAGTAAACAAATTTTCCTAATCTTTCTGTTCAAGCGCCATCTAC”: the binding signal is 0.983 RPM ratio (pull-down/input). With “GATGATTGTTCTCCCAGCTGATGAATTCGGGAAGTCGAGTAAACAAATTTTCCTAATCTTTCTGTTCAAGCGCCATCTAC”, the binding signal is 0.775 RPM ratio (pull-down/input). In the case of “GATGATTGTTCTCCCAGCTGATGAATTCTAGCGGTCGAGTAAACAAATTTTCCTAATCTTTCTGTTCAAGCGCCATCTAC”, the binding signal was 0.797 RPM ratio (pull-down/input). For “GATGATTGTTCTCCCAGCTGATGAATTGCTACAATCGAGTAAACAAATTTTCCTAATCTTTCTGTTCAAGCGCCATCTAC”, the binding signal is 1.5 RPM ratio (pull-down/input). With “GATGATTGTTCTCCCAGCTGATGAATTCAGGCCGTCGAGTAAACAAATTTTCCTAATCTTTCTGTTCAAGCGCCATCTAC”, the binding signal was 0.83 RPM ratio (pull-down/input). As to “GATGATTGTTCTCCCAGCTGATGAATTATCTGCTTCGAGTAAACAAATTTTCCTAATCTTTCTGTTCAAGCGCCATCTAC”, the binding signal is 0.893 RPM ratio (pull-down/input). Turning to “GATGATTGTTCTCCCAGCTGATGAATTCCTAGGGTCGAGTAAACAAATTTTCCTAATCTTTCTGTTCAAGCGCCATCTAC”, the binding signal was 0.727 RPM ratio (pull-down/input). In the case of “GATGATTGTTCTCCCAGCTGATGAATTACGTCAGTCGAGTAAACAAATTTTCCTAATCTTTCTGTTCAAGCGCCATCTAC”, the binding signal is 1.02 RPM ratio (pull-down/input). The result for “GATGATTGTTCTCCCAGCTGATGAATTAGGATGCTCGAGTAAACAAATTTTCCTAATCTTTCTGTTCAAGCGCCATCTAC” reads 1.32 RPM ratio (pull-down/input); that for “GATGATTGTTCTCCCAGCTGATGAATTATTAACCTCGAGTAAACAAATTTTCCTAATCTTTCTGTTCAAGCGCCATCTAC”, 1.06 RPM ratio (pull-down/input). For “GATGATTGTTCTCCCAGCTGATGAATTGCAAACCTCGAGTAAACAAATTTTCCTAATCTTTCTGTTCAAGCGCCATCTAC”, the binding signal is 1.22 RPM ratio (pull-down/input). Take “GATGATTGTTCTCCCAGCTGATGAATTAAACGTATCGAGTAAACAAATTTTCCTAATCTTTCTGTTCAAGCGCCATCTAC”: the binding signal was 1.09 RPM ratio (pull-down/input).

For the sequence “GATGATTGTTCTCCCAGCTGATGAATTGTCCTATTCGAGTAAACAAATTTTCCTAATCTTTCTGTTCAAGCGCCATCTAC”, the binding signal was 1.07 RPM ratio (pull-down/input). With “GATGATTGTTCTCCCAGCTGATGAATTCCCGACTTCGAGTAAACAAATTTTCCTAATCTTTCTGTTCAAGCGCCATCTAC”, the binding signal is 0.806 RPM ratio (pull-down/input). On to “GATGATTGTTCTCCCAGCTGATGAATTGCACTATTCGAGTAAACAAATTTTCCTAATCTTTCTGTTCAAGCGCCATCTAC”, for which the binding signal was 1.28 RPM ratio (pull-down/input). Regarding “GATGATTGTTCTCCCAGCTGATGAATTAGTGCAATCGAGTAAACAAATTTTCCTAATCTTTCTGTTCAAGCGCCATCTAC”, the binding signal is 1.36 RPM ratio (pull-down/input).

Consider “GATGATTGTTCTCCCAGCTGATGAATTCAAAAGTTCGAGTAAACAAATTTTCCTAATCTTTCTGTTCAAGCGCCATCTAC”, for which the binding signal is 0.849 RPM ratio (pull-down/input). For the sequence “GATGATTGTTCTCCCAGCTGATGAATTAATACCTTCGAGTAAACAAATTTTCCTAATCTTTCTGTTCAAGCGCCATCTAC”, the binding signal is 0.981 RPM ratio (pull-down/input). The result for “GATGATTGTTCTCCCAGCTGATGAATTGCTTTTCTCGAGTAAACAAATTTTCCTAATCTTTCTGTTCAAGCGCCATCTAC” reads 1.32 RPM ratio (pull-down/input); that for “GATGATTGTTCTCCCAGCTGATGAATTTATGTCCTCGAGTAAACAAATTTTCCTAATCTTTCTGTTCAAGCGCCATCTAC”, 1.17 RPM ratio (pull-down/input).
